Results published in PMC12136788.
Some of the results follow.

B1: chr16:85089731:85089832:+|3pUTR|ENSG00000135709|msi1|total|mutant (ssRNA)
RNA: GGGAGUUCUACAGUCCGACGAUCUUGGAAGGUUUCCCUCCGGGGAAUGCCUCCCUGGAAUGUUCCAGAGACGGAACAUUCUCCCGAGACAACAGUCUGUGCUGCAGAUUGGUUGGAUCACAGAAUGUGUGUCUGGGGCAUUAUCAACAGAGGAUUGAGCAUCA
B2: chr19:15878022:15878898:-|three_prime_utr|ENSG00000186115|control|control|control (ssRNA)
RNA: GGGAGUUCUACAGUCCGACGAUCUCUGCAGAGACCCACUCUGACCCCACUAAAAUGACCCCUGAUUCAUCAAAAGUGAAGCCUAGAAUUACCCUAAGACCCUGUUCCACAGUCCUGUAUUCCAUCCUAGAUAUCUACUCAAAACAACAGAGGAUUGAGCAUCA
B3: chr7:123692404:123692516:-|CDS|ENSG00000106299|unk|FALSE|unique (ssRNA)
RNA: GGGAGUUCUACAGUCCGACGAUCCCUGCCUUCUGAUGGGGACCAUCAGGUUCCAACUACUGCAGGAAACAAAGCAGCUCUUUUAGAUCAAAUUAGAGAGGGUGCUCAGCUAAAAAAAGUGGAGCAGAACAGUCGGCCAGUGUCCAACAGAGGAUUGAGCAUCA
B4: chr14:77132432:77132533:-|3pUTR|ENSG00000177108|unk|total|mutant (ssRNA)
RNA: GGGAGUUCUACAGUCCGACGAUCUGUGAUUGCUGGACCCAGAGGCAAGAUCUGCAGAGAUGCCUGUGAGAUAUUUGCUUUCCCCGAGGGGAGUGUGGGCAUGGGAGGGGUCUGAAAAUCAGGACCCAACCCAGCCACUGAAGACAACAGAGGAUUGAGCAUCA
B5: chr17:42842016:42842117:+|3pUTR|ENSG00000131467|msi1|total|mutant (ssRNA)
RNA: GGGAGUUCUACAGUCCGACGAUCUUACUGUUUCUUUCCUCUGUGGGGCAUUGGAUCCUCCCACAGUUGCCCUGGUGAUGACUCCGGGCUUCCCAUCUGUGUACAUCCCACUUUGAAUCUUGAUCGUGACAAGAAAUACCUCCGCAACAGAGGAUUGAGCAUCA
B6: chr22:38483724:38483825:-|3pUTR|ENSG00000100201|msi1|total|mutant (ssRNA)
RNA: GGGAGUUCUACAGUCCGACGAUCACUUAUAAUUCAGGUUCUGCUGUUGGCUUCAGAACAUGAGCAGAAGAAUCGUUUUAUGCCCGUUAUUGCAUUCAUGGUUGAAACUCAACUCCGGGAAAGGGUUCCAAUGUAUUAAGCAAUCAACAGAGGAUUGAGCAUCA
B7: chr12:21491601:21491717:-|CDS|ENSG00000004700|unk|total|mutant (ssRNA)
RNA: GGGAGUUCUACAGUCCGACGAUCGCUGCCUCCCACCGCUCUAACUGAGGAACUGGAUUCUAUAACCAGUGAGCUACAUGCAGCCGAAAUUCAAAUUCAAGAACUUACGGAAAGGCAACAAGAGCUUAUUCAGAAAAAAAAAGUCAACAGAGGAUUGAGCAUCA
B8: chr9:128061232:128063427:-|three_prime_utr|ENSG00000171169|control|control|control (ssRNA)
RNA: GGGAGUUCUACAGUCCGACGAUCCCAUGAUGGGAUGAAAACUCCAUGGACUUGUAAGUGGGUCCUGUGAUUGGCCUUGGCCUUAGACCGGCCACGUGCACAGCUCCCUCUUUAAUAAACGCUUAGGGGUUGCACUGUUUUUGACAACAGAGGAUUGAGCAUCA
B9: chr14:73931500:73934255:-|three_prime_utr|ENSG00000156050|control|control|control (ssRNA)
RNA: GGGAGUUCUACAGUCCGACGAUCAGCUAACUUGGGUUUGAGUCAAGGCAGGGAAAACUUGGGUUUUGAGUCAUGGCUACUGUUAGAGGAUGGACAAAUGAAGAGUAGCAGAUUAACAGGCCAGGCGCAGUGGCUCACGCCUGUCAACAGAGGAUUGAGCAUCA
B10: chr3:98797553:98797658:-|3pUTR|ENSG00000057019|msi1|total|mutant (ssRNA)
RNA: GGGAGUUCUACAGUCCGACGAUCAUUUCAUUCAUUGAAGAAUCAAUACAUAUUUUGUUUCAAAAUGUUUGAAACAAAAGACACCGAUGGCCGACUUUUAUUAAAACAUAUAUGGAUGUGGAAAGCACAUAUAUUAAUGCAGUCCAACAGAGGAUUGAGCAUCA
B11: chr8:37861146:37861251:-|3pUTR|ENSG00000156675|unk|total|mutant (ssRNA)
RNA: GGGAGUUCUACAGUCCGACGAUCCUGUGCAGAGCAAGAAGAUGAUACUUAUUUUUGAAUUUGUAUUUUUAAAACCCGAUUUACCGACUUUUUUUUUUUUUAACCCGGGCACUUGCUUCCUUCUCCGCUAAAAGCACCAGCUGACAACAGAGGAUUGAGCAUCA
B12: ENSG00000124766:be:win_2601|3pUTR|ENSG00000124766|bound_else_gene|NA|bound_elsewhere_windowed (ssRNA)
RNA: GGGAGUUCUACAGUCCGACGAUCAGGAUAAUAUAAAAAGCAGAUAGAUGGCGCUAUGUUUGAUUCCUACAACGAAAUUAUCACCAGCUUUUUUUCAUUCUUAACUCUUUAAAGGAUUCAAACGCAACUCAAAUCUGUGCUGGACAACAGAGGAUUGAGCAUCA
B13: ENSG00000113083:stop:overlap|stop_codon|ENSG00000113083|stop_codon|NA|stop_codon (ssRNA)
RNA: GGGAGUUCUACAGUCCGACGAUCGUGACAUUCGCUACACAGGACAUCAUGCGUAUGCCUCAGGCUGCACAAUUUCACCGUAUUAGAAGGCAAAGCAAAACUCCCAAUGGAUAAAUCAGUGCCUGGUGUUCUGAAGUGGGAAAACAACAGAGGAUUGAGCAUCA
B14: chr22:21445082:21445183:+|CDS|ENSG00000169635|msi1|total|mutant (ssRNA)
RNA: GGGAGUUCUACAGUCCGACGAUCCCUGUGUGACGUCAUCAUCAUGGUGGAGAACUCCAUCUUCCGGGCCCACAAGAACGUCCCCGCCGCCAGCAGCAUCUAUUUCAAGUCCCUGGUCCUGCACGACAACCUCAUCAACCUGGACAACAGAGGAUUGAGCAUCA
B15: chr10:113908677:113908778:+|3pUTR|ENSG00000196865|unk|total|mutant (ssRNA)
RNA: GGGAGUUCUACAGUCCGACGAUCAGCUAUGCUCCUUACUUACUUCUUUUAUUAUAAACAAAUUCCUUUGCUUUGGCUGAUACCCGCUGAGUCAUUGAUCAUCAUUGGUACCAUGAUAUUGUAAUCUAUGCUGCUAUUUGGCACCAACAGAGGAUUGAGCAUCA
B16: ENSG00000136451:be:win_2951|3pUTR|ENSG00000136451|bound_else_gene|NA|bound_elsewhere_windowed (ssRNA)
RNA: GGGAGUUCUACAGUCCGACGAUCAAAAUUAACUAAACCAAGAUGCUGUGAUUUUUUAAGUUGCAAUAUGUUUUUGGUUUUUUUCAUUUUUUAAUCAUUGCAGUUAAGAGAAAUGGAAAUUAGUUGUGUUAAUCUUGCAGAAUGCAACAGAGGAUUGAGCAUCA
B17: chr2:224511460:224511569:-|CDS|ENSG00000036257|unk|FALSE|bound_elsewhere (ssRNA)
RNA: GGGAGUUCUACAGUCCGACGAUCGAAAGCCAGAAAUUUUUAGCAGAAAAUAGUGCUUCAGUAUAUAUAAAGAAAGUAGAAGCUAGAAUUAAUGAAGAAAUAGAACGAGUGAUGCACUGCCUUGACAAAUCAACGGAAGAACCACAACAGAGGAUUGAGCAUCA
B18: ENSG00000124766:be:win_101|CDS|ENSG00000124766|bound_else_gene|NA|bound_elsewhere_windowed (ssRNA)
RNA: GGGAGUUCUACAGUCCGACGAUCCCACGCCCGGCUCCACCGCCUCCACGGGCGGCAAGGCCGACGACCCGAGCUGGUGCAAGACCCCGAGUGGGCACAUCAAGCGACCCAUGAACGCCUUCAUGGUGUGGUCGCAGAUCGAGCCAACAGAGGAUUGAGCAUCA
B19: chr5:83942588:83942842:-|3pUTR|ENSG00000164176|msi1|FALSE|unique (ssRNA)
RNA: GGGAGUUCUACAGUCCGACGAUCUUUUCUAAUUGAAUUUCCUAUUAGUUGACUAAAAGAAGUGUCAUGUUUACUCAUAUAUGUAGAACAUGACUGCCUAUCAGUAGAUUGAUCUGUAUUUAAUAUUCGUUAAUUAAAUCUGCACAACAGAGGAUUGAGCAUCA
B20: chrX:142202868:142203987:-|CDS|ENSG00000046774|control|control|control (ssRNA)
RNA: GGGAGUUCUACAGUCCGACGAUCUCAGAAAGCAUCAAGAAGAAAGUACUAGAGUUUUUAGCCAAGCUGAACAACACUGUUCCUAGUUCCUUUCCAUCCUGGUACAAGGAUGCUUUGAAAGAUGUGGAAGAGAGAGUCCAGGCCCAACAGAGGAUUGAGCAUCA
B21: chr7:6409910:6410025:-|CDS|ENSG00000164535|unk|FALSE|unique (ssRNA)
RNA: GGGAGUUCUACAGUCCGACGAUCCUCUGCUGCUCACUAUAGCGCCAAGUGGUCACACGAAGCGGAAUUCAGCAAAAUACUCAUAGGUCCGAAGAUGCUCACCGACCACAUGCCAGACAUCCUGAUGCGGGCCUUGGACAGCGUCAACAGAGGAUUGAGCAUCA
B22: chr20:53567570:53567671:-|3pUTR|ENSG00000171940|unk|FALSE|unique (ssRNA)
RNA: GGGAGUUCUACAGUCCGACGAUCUCACAAGCUGAGCCAUAUGUACAUAAUCUAGAUUUUGUUUUCAUAGUUUUGCACUUUUAUAGCCUAUUUUUGAAGAUUAACACAUUUGCAAGAUGAUUGACUCAAUCUUUGCCUAAUCCACAACAGAGGAUUGAGCAUCA

These binders were tested against MSI1 full-length (mouse, UniProt Q61474 1-362) (assay: nsRBNS (natural sequence RNA bind-n-seq); RBNS binding buffer (assumed for nsRBNS): 25 mM Tris pH 7.5, 150 mM KCl, 3 mM MgCl2, 0.01% Triton X-100, 500 ug/ml BSA, 20 U/ml SUPERase-In, 4 C; UNK is unkempt and MSI1 is Musashi-1; names of the RNAs are library labels; protein concentration not given here; high values mean tight binding).
UniProt Q61474, sequence (Q61474 whole entry): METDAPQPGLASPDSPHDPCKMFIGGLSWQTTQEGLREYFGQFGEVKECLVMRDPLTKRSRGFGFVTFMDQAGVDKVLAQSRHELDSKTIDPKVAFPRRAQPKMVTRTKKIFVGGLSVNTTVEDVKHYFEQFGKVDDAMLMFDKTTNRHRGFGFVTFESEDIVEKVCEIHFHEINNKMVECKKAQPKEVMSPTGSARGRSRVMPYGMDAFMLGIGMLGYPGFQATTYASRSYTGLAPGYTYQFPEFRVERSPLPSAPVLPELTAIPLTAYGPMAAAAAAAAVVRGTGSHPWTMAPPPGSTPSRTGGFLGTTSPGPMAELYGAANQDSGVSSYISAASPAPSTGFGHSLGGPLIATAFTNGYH

Binder | binding signal [enrichment R]
B1 | 0.228
B2 | 0.915
B3 | 0.703
B4 | 0.315
B5 | 0.478
B6 | 0.185
B7 | 0.352
B8 | 0.41
B9 | 0.698
B10 | 0.366
B11 | 0.679
B12 | 0.725
B13 | 6.59
B14 | 0.628
B15 | 3.24
B16 | 0.484
B17 | 36.5
B18 | 0.283
B19 | 3.81
B20 | 0.418
B21 | 0.741
B22 | 4.98
